According to the supplement of paper PMC8285479:
Structures can show the parent of a compound that is named as a salt. ± gives the standard deviation of the averaged measurements. In all, about 1,900 compounds were measured (“normalised cell viability (NPI; 0 = phenylarsine oxide control, 1 = DMSO control)”: median about 1, lowest 2% from about 0.039 on). This is one part of the list.

System: NCI-H1944
Experiment: normalised cell viability (NPI; 0 = phenylarsine oxide control, 1 = DMSO control) (fraction of DMSO control); NCI-H1944 is a non-small cell lung cancer line; higher = more viable cells (less compound toxicity)
Details: 6 days
[1] = glucocorticoid arm: hydrocortisone 2.75 uM co-treatment, compound 1 µM
[2] = glucocorticoid arm: hydrocortisone 2.75 uM co-treatment, compound 5 µM
[3] = glucocorticoid arm: hydrocortisone 2.75 uM pre-treated 2 days and continued, compound 1 µM
[4] = glucocorticoid arm: hydrocortisone 2.75 uM pre-treated 2 days and continued, compound 5 µM
[5] = glucocorticoid arm: vehicle, compound 1 µM
[6] = glucocorticoid arm: vehicle, compound 5 µM
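Further: CTB read-out in 384-well plates, mean of triplicate wells, normalised per plate against 1 µM phenylarsine oxide and 0.1% DMSO, compounds added 24 h after seeding.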

Structure (SMILES): O=C(O)[C@H]1C[C@H](C(=O)O)N1 (relative stereo) [trans-Azetidine-2,4-dicarboxylic acid]
- normalised cell viability [1]: 1.007 ± 0.0058
- normalised cell viability [2]: 1.007 ± 0.0058
- normalised cell viability [3]: 1.005 ± 0.0087
- normalised cell viability [4]: 1.01
- normalised cell viability [5]: 0.9843 ± 0.0025
- normalised cell viability [6]: 0.9883 ± 0.0091

Structure (SMILES): O=P(O)(O)C(Cl)(Cl)P(=O)(O)O [Clodronic acid]
- normalised cell viability [1]: 1 ± 0.018
- normalised cell viability [2]: 0.998 ± 0.011
- normalised cell viability [3]: 1 ± 0.013
- normalised cell viability [4]: 0.9957 ± 0.0058
- normalised cell viability [5]: 0.9967 ± 0.0058
- normalised cell viability [6]: 0.994 ± 0.004

Structure (SMILES): N=C(N)NCCC[C@H](N)C(=O)O [L-Arginine]
- normalised cell viability [1]: 1 ± 0.018
- normalised cell viability [2]: 0.997 ± 0.0027
- normalised cell viability [3]: 0.994 ± 0.0066
- normalised cell viability [4]: 1 ± 0.011
- normalised cell viability [5]: 0.986 ± 0.0085
- normalised cell viability [6]: 1.001 ± 0.0081

Structure (SMILES): CNCCC(Oc1ccc(C(F)(F)F)cc1)c1ccccc1 (stereo unspecified) [Fluoxetine HCl]
- normalised cell viability [1]: 0.996 ± 0.002
- normalised cell viability [2]: 0.897 ± 0.013
- normalised cell viability [3]: 0.991 ± 0.041
- normalised cell viability [4]: 0.956 ± 0.014
- normalised cell viability [5]: 0.995 ± 0.0056
- normalised cell viability [6]: 0.974 ± 0.027

Structure (SMILES): CNCCC(Oc1ccc(C(F)(F)F)cc1)c1ccccc1 (stereo unspecified) [Fluoxetine hydrochloride]
- normalised cell viability [1]: 0.996 ± 0.013
- normalised cell viability [2]: 0.933 ± 0.025
- normalised cell viability [3]: 1 ± 0.0095
- normalised cell viability [4]: 1.02 ± 0.015
- normalised cell viability [5]: 1.01 ± 0.011
- normalised cell viability [6]: 0.9983 ± 0.0021

Structure (SMILES): C[C@@H](CN1CC(=O)NC(=O)C1)N1CC(=O)NC(=O)C1 [Dexrazoxone; Dexrazoxane]
- normalised cell viability [1]: 1.03
- normalised cell viability [2]: 1.04 ± 0.04
- normalised cell viability [3]: 1.02 ± 0.011
- normalised cell viability [4]: 1.02 ± 0.01
- normalised cell viability [5]: 0.9923 ± 0.008
- normalised cell viability [6]: 1.003 ± 0.0058

Structure (SMILES): OCc1cc(C(O)CNCCCCCCOCCCCc2ccccc2)ccc1O (stereo unspecified) [Salmeterol Xinafoate]
- normalised cell viability [1]: 1.017 ± 0.0058
- normalised cell viability [2]: 0.957 ± 0.031
- normalised cell viability [3]: 1.017 ± 0.0058
- normalised cell viability [4]: 0.962 ± 0.037
- normalised cell viability [5]: 1.007 ± 0.0058
- normalised cell viability [6]: 0.988 ± 0.0056

Structure (SMILES): OCc1cc(C(O)CNCCCCCCOCCCCc2ccccc2)ccc1O (stereo unspecified) [Salmeterol xinafoate]
- normalised cell viability [1]: 0.9917 ± 0.0047
- normalised cell viability [2]: 0.944 ± 0.017
- normalised cell viability [3]: 0.897 ± 0.19
- normalised cell viability [4]: 1.03 ± 0.015
- normalised cell viability [5]: 1 ± 0.0092
- normalised cell viability [6]: 1.01 ± 0.011

Structure (SMILES): C#CCN1C(C)=C(C(=O)OC)C(c2cccc([N+](=O)[O-])c2)C(C(=O)OCC)=C1C (stereo unspecified)
- normalised cell viability [1]: 0.9993 ± 0.0092
- normalised cell viability [2]: 0.861 ± 0.0093
- normalised cell viability [3]: 0.9923 ± 0.0049
- normalised cell viability [4]: 1.09 ± 0.078
- normalised cell viability [5]: 1.013 ± 0.0058
- normalised cell viability [6]: 0.985 ± 0.033

Structure (SMILES): CN(C)C1CCN(C(=O)c2ccc(NC(=O)Nc3ccc(-c4nc(N5CCOCC5)nc(N5CCOCC5)n4)cc3)cc2)CC1
- normalised cell viability [1]: 0.231 ± 0.011
- normalised cell viability [2]: 0.105 ± 0.0056
- normalised cell viability [3]: 0.311 ± 0.026
- normalised cell viability [4]: 0.147 ± 0.012
- normalised cell viability [5]: 0.0929 ± 0.0075
- normalised cell viability [6]: 0.0212 ± 0.0032

Structure (SMILES): CCCCCCCCCCC/C=C\C(C)(C)/C=C\CCCC(=O)O [7,7-Dimethyl-(5Z,8Z)-eicosadienoic acid]
- normalised cell viability [1]: 1.01 ± 0.013
- normalised cell viability [2]: 1.01 ± 0.011
- normalised cell viability [3]: 1.007 ± 0.0058
- normalised cell viability [4]: 1.007 ± 0.0058
- normalised cell viability [5]: 0.9913 ± 0.004
- normalised cell viability [6]: 0.9977 ± 0.0025

Structure (SMILES): Cc1cc2c(cc1Cl)N(C(=O)Nc1cccc3ncccc13)CC2
- normalised cell viability [1]: 0.985 ± 0.011
- normalised cell viability [2]: 0.965 ± 0.015
- normalised cell viability [3]: 1 ± 0.016
- normalised cell viability [4]: 1.03 ± 0.084
- normalised cell viability [5]: 0.9793 ± 0.0086
- normalised cell viability [6]: 0.992 ± 0.007

Structure (SMILES): CCCS(=O)(=O)Nc1ccc(F)c(C(=O)c2c[nH]c3ncc(-c4ccc(Cl)cc4)cc23)c1F [Vemurafenib (PLX4032)]
- normalised cell viability [1]: 1.05 ± 0.011
- normalised cell viability [2]: 0.997 ± 0.029
- normalised cell viability [3]: 1.03
- normalised cell viability [4]: 1.01 ± 0.026
- normalised cell viability [5]: 1.017 ± 0.0058
- normalised cell viability [6]: 1.007 ± 0.0058

Structure (SMILES): CCCS(=O)(=O)Nc1ccc(F)c(C(=O)c2c[nH]c3ncc(-c4ccc(Cl)cc4)cc23)c1F [vemurafenib]
- normalised cell viability [1]: 1.04 ± 0.011
- normalised cell viability [2]: 1.14 ± 0.02
- normalised cell viability [3]: 1.03 ± 0.01
- normalised cell viability [4]: 1.08 ± 0.01
- normalised cell viability [5]: 1.01 ± 0.01
- normalised cell viability [6]: 1.037 ± 0.0058

Structure (SMILES): CCCCNC(=O)NS(=O)(=O)c1ccc(C)cc1 [Tolbutamide]
- normalised cell viability [1]: 0.9913 ± 0.006
- normalised cell viability [2]: 1 ± 0.024
- normalised cell viability [3]: 0.809 ± 0.34
- normalised cell viability [4]: 0.9917 ± 0.008
- normalised cell viability [5]: 0.9977 ± 0.004
- normalised cell viability [6]: 0.989 ± 0.011

Structure (SMILES): Cn1c(=O)cc(N2CCC[C@@H](N)C2)n(Cc2ccccc2C#N)c1=O [Alogliptin (SYR-322)]
- normalised cell viability [1]: 0.976 ± 0.012
- normalised cell viability [2]: 1 ± 0.024
- normalised cell viability [3]: 0.969 ± 0.027
- normalised cell viability [4]: 1 ± 0.016
- normalised cell viability [5]: 0.986 ± 0.0017
- normalised cell viability [6]: 0.995 ± 0.013
